Publication PMC12136788
This is one part of the list.

T1: UNK ZnF1-6 (called full-length) (human, UniProt Q9C0B0 30-357)
T1 sequence: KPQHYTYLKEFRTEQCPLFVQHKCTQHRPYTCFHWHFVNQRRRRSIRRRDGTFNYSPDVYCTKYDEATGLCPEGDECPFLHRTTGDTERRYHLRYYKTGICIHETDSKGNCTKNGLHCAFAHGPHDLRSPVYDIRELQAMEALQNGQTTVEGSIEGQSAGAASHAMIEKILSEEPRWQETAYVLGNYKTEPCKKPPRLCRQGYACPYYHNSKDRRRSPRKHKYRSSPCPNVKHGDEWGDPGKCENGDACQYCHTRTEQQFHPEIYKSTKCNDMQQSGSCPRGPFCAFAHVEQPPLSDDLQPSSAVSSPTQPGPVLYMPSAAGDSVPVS

B1: chr4:56994692:56994796:+|CDS|ENSG00000047315|unk|FALSE|unique (ssRNA)
RNA: GGGAGUUCUACAGUCCGACGAUCAAAAACAGUCAUUAAAGAAGGUGAAGAACAACUUCAGACUCAGCAUCAGAAAACUUUUAUAGGAAAAAUUCCAAUUAUGUUGCGGUCAACUUACUGCCUUUUGAAUGGCUUGACAGAUCGCAACAGAGGAUUGAGCAUCA
B2: ENSG00000084234:stop:overlap|stop_codon|ENSG00000084234|stop_codon|NA|stop_codon (ssRNA)
RNA: GGGAGUUCUACAGUCCGACGAUCAGAUGCAGAACCAUGGCUAUGAGAACCCCACCUACAAAUACCUGGAGCAGAUGCAGAUUUAGGUGGCAGGGAGCGCGGCAGCCCUGGCGGAGGGAUGCAGGUGGGCCGGAAGAUCCCACGCAACAGAGGAUUGAGCAUCA
B3: chr14:55043969:55044070:+|CDS|ENSG00000180008|unk|FALSE|bound_elsewhere (ssRNA)
RNA: GGGAGUUCUACAGUCCGACGAUCUUUUUACUUCGAGACUCAGCACAGGAAGACUAUUUAUUCUCUGUUAGUUUUAGACGCUAUAGUCGUUCUCUUCAUGCUAGAAUUGAACAGUGGAAUCACAACUUUAGCUUUGAUGCACAUCAACAGAGGAUUGAGCAUCA
B4: chr17:35924603:35924772:-|CDS|ENSG00000278023|control|control|control (ssRNA)
RNA: GGGAGUUCUACAGUCCGACGAUCGGAAAAUGAAGAUAGCAUGGUGCCACUUCCGAAGCAAAGCCUGAAGUUCUUCUGUGCUUUAGAAGUGGUGUUGCCAUCCUGUGAUUGCAGGAGUCCUGGCAUUGGCUUGGUGGAGGAGCCCAACAGAGGAUUGAGCAUCA
B5: chr10:72062367:72062468:-|3pUTR|ENSG00000107742|unk|FALSE|unique (ssRNA)
RNA: GGGAGUUCUACAGUCCGACGAUCCCUUGAUCCACACUGCUCCUGGCAGAGUGAGUCACCCAAAGGCCCCUUCGGCCUCCUUGUAGCUGUUUUCUUUCCUUUUGUUGUUGGUUUUAAAAUACAUUCACACACAAAUACAAAUUGCAACAGAGGAUUGAGCAUCA
B6: chr5:148417036:148417137:+|CDS|ENSG00000145868|unk|total|mutant (ssRNA)
RNA: GGGAGUUCUACAGUCCGACGAUCGGUUGUGCUCGAGUUGGUCUGAGUGCAGGCACAGGAAUUGGUGUUUCAUCAGCUCUUGUCCGCAACCAGAACUCCAACAAUGACGAUAAUAAUGCCCAGAAUAACAAUGCCAACAUCCACCAACAGAGGAUUGAGCAUCA
B7: chr10:50307981:50308148:-|CDS|ENSG00000198964|control|control|control (ssRNA)
RNA: GGGAGUUCUACAGUCCGACGAUCCUGGUGGUAUCACUGGAUUUGCUGGCUUCUCAGCGUAGUUGGAAUCUUCUGUAUUCUCUUAGCGCAUGACCACUACACUGUGGACGUGGUGGUGGCAUAUUACAUCACCACGAGACUCUUCAACAGAGGAUUGAGCAUCA
B8: chr3:194355248:194359297:-|three_prime_utr|ENSG00000172061|control|control|control (ssRNA)
RNA: GGGAGUUCUACAGUCCGACGAUCCUCUUUCUGGCCCCAGAGAAAGGUGAGCCUACCUCUUCCUGACUUGCCUGAUUCUCCCGUAGAGAAGCAGGUCGUGCCGGACCUUCCUACAAUCAGGAAGAUAGAUCCAACUGGCCAUGGCAACAGAGGAUUGAGCAUCA
B9: chr1:215620365:215620495:+|CDS|ENSG00000136636|unk|FALSE|unique (ssRNA)
RNA: GGGAGUUCUACAGUCCGACGAUCGGUUUUUCAGAAUCCAAGAAAAGGUCAUCAGAAGAUGAAAAUGAAAAUAAAAUAGAGUUUAGGAAGAAAGGAGGAUUUGAAGGGGGAGGAUUCCUUGGAAGAAAGAAAGUUCCCUAUCUGCAACAGAGGAUUGAGCAUCA
B10: chr3:179570125:179570235:+|CDS|ENSG00000136518|unk|total|mutant (ssRNA)
RNA: GGGAGUUCUACAGUCCGACGAUCAAGCACAUUAAUGGAAACCGAUGGCGAUAAAGGCAAACAAGGCGGUCCCACCUACUACACCGAUACUAAUGCUCUGCGUGUUCCGAGGGAGAAUAUGGAGGCCAUUUCACCUCUAAAAAACAACAGAGGAUUGAGCAUCA
B11: chr12:132079871:132079972:+|3pUTR|ENSG00000183495|msi1|total|mutant (ssRNA)
RNA: GGGAGUUCUACAGUCCGACGAUCAGAUGCUACCGUUGACCUGAGUUAAAUUCAUUCCGUCGUGUACGUAAAAACUCUCCUUUCCGUGUGUUAUUUUCUUGGCCUUCCCUUUUAAAGGUUAAAGUUUCUAACCUAAGAAUUAAGCAACAGAGGAUUGAGCAUCA
B12: chr7:106091418:106091523:-|3pUTR|ENSG00000008282|msi1|total|mutant (ssRNA)
RNA: GGGAGUUCUACAGUCCGACGAUCUUUACACCUUAAGCCUUAACAUGUAUCUUCAUUCAGAAAACAGUUAUAUUGUCAUACCACCGCCGGAAGAAAAACCUUUAUUUGGAAUAUACACUACUGUAAGUUUGUACAGAUCAUAUACAACAGAGGAUUGAGCAUCA
B13: chr3:130733575:130733676:-|CDS|ENSG00000196455|msi1|FALSE|unique (ssRNA)
RNA: GGGAGUUCUACAGUCCGACGAUCCGUCAAAGAGGUUCCUCGUAAUGAUAUCAAUAUUUAUCCGGAAUACAUUCUGCCAGGCAUAGCCCACUUAGCCCAAGAUGAUGCUACUAUCGUUAGACUAGCCUAUGCUGGUAAGAGUUUCAACAGAGGAUUGAGCAUCA
B14: chr7:92086252:92086353:+|CDS|ENSG00000127914|msi1|FALSE|unique (ssRNA)
RNA: GGGAGUUCUACAGUCCGACGAUCUCAUGAGAGCUUCUCAGACUGGCGAGGUGAACUACUGCUUGCCCUUCAACAAGUUUUCUUAGAAGAGCGUAGUGUUUUACUAGCAGCAUUUCGGACGGAGCUGACAGCUCUAGGUACUACCAACAGAGGAUUGAGCAUCA
B15: chr6:125978377:125978478:+|3pUTR|ENSG00000111911|unk|total|mutant (ssRNA)
RNA: GGGAGUUCUACAGUCCGACGAUCAAUUUUGCCUCUAAUAACAUAAAGGGGGAAGAAACAUAAAGUGGUUCUCUUAAUAAAACCCGCAGAAAAUGUUGCUUUAUGGCAUGUUUUUGUAUCAAAGAGAAAUCAGAGGUUAAACUUCAACAGAGGAUUGAGCAUCA
B16: chr2:40113585:40113686:-|3pUTR|ENSG00000183023|msi1|total|mutant (ssRNA)
RNA: GGGAGUUCUACAGUCCGACGAUCUCAUUUUAUUUUUUUACUUAAAAGGCUAUUUUGAGCCCUGUUUCUUUCACUGUCCAGUCCCGUCCUCUUUGAUUAUAUCAGCCGUUGCUGAGUAAGAAAGAAGCCAGGGUGACCAACGGGCAACAGAGGAUUGAGCAUCA
B17: chr12:30637093:30637194:-|CDS|ENSG00000133704|unk|total|mutant (ssRNA)
RNA: GGGAGUUCUACAGUCCGACGAUCUGUCUACAUUUUUUUUUUCUUCAAAAUUUGCAGGCAUCAUGACCGGAAGAUGUGUAUAACCGGACUGAGUAUCCUUUUGGAAUUGCAAAAUCGACCUCCUGCAGCCGAUGCUGUGGUGGGCAACAGAGGAUUGAGCAUCA
B18: chr3:49657245:49657349:+|CDS|ENSG00000164061|unk|FALSE|unique (ssRNA)
RNA: GGGAGUUCUACAGUCCGACGAUCCAGCCGUAGUGGCAUCAAGAAGCGGCACUCCAUGCCACGCCUGCGGGAUGCCUGUGAGCUAGAGUCUGGGACUGAGCCCUGUGUGGUCAGGAGGAUUGCCGACAGCAGCGUGCAGACAGACAACAGAGGAUUGAGCAUCA
B19: ENSG00000100393:stop:overlap|stop_codon|ENSG00000100393|stop_codon|NA|stop_codon (ssRNA)
RNA: GGGAGUUCUACAGUCCGACGAUCUCAGCACCGAUAACUCAGACUUGAAUUCAAACCUCUCACAGAGUACACUAGACAUACACUAGAGACACCUUGUAGUAUUUUGGGAGCAAAAAAAUUAUUUUCUCUUAACAAGACUUUUUGCAACAGAGGAUUGAGCAUCA
B20: chr7:93926053:93926159:+|CDS|ENSG00000127920|unk|total|mutant (ssRNA)
RNA: GGGAGUUCUACAGUCCGACGAUCGUCUAAAUGUUCUGAAGAAAUAAAGAACUAUAUUGAAGAACGUUCUGGAGAGGAUCCUCCCGUAAAGGGAAUUCCAGAAGACAAGAACCCCUUUAAAGAAAAAGGCAGCUGUGUUAUUUCCAACAGAGGAUUGAGCAUCA
B21: chr1:27823432:27823533:+|3pUTR|ENSG00000117758|unk|FALSE|unique (ssRNA)
RNA: GGGAGUUCUACAGUCCGACGAUCUUUCAAUAAAAUUACUGUCUUGUAAUAUAAAUGUUGUCCACUUCCCUUUUCCACAGGCCUAGAACAGUUAAAGGGAACAUAAUUUGUUUAGGCUCCCACAUAAAUGUGAAUCUGGCCAACCAACAGAGGAUUGAGCAUCA
B22: chr12:32745429:32745530:+|3pUTR|ENSG00000087470|msi1|FALSE|unique (ssRNA)
RNA: GGGAGUUCUACAGUCCGACGAUCCAACGGAAAGAGAAAAGCCUUCCUUUGUUGGCCCUUAAACUGAGUCAAGAUCUGAAAUGUAGAGAUGAUCUCUGACGAUACCUGUAUGUUCUUAUUGUGUAAAUAAAAUUGCUGGUAUGACAACAGAGGAUUGAGCAUCA

These binders were tested against T1, UNK ZnF1-6 (called full-length) (assay: nsRBNS (natural sequence RNA bind-n-seq); RBNS binding buffer (assumed for nsRBNS): 25 mM Tris pH 7.5, 150 mM KCl, 3 mM MgCl2, 0.01% Triton X-100, 500 ug/ml BSA, 20 U/ml SUPERase-In, 4 C; UNK is unkempt and MSI1 is Musashi-1; names of the RNAs are library labels; protein concentration not given here; high values mean tight binding).
For B1, the binding signal was 0.382 enrichment R.
B2 gave a binding signal of 1.19 enrichment R.
B3 was tested, and the binding signal was 1.23 enrichment R.
Work on B4 yielded a binding signal of 1.03 enrichment R.
Work on B5 yielded a binding signal of 0.749 enrichment R.
In the case of B6, the binding signal is reported as 0.414 enrichment R.
B7 showed a binding signal of 0.472 enrichment R.
With B8 the binding signal was 0.656 enrichment R.
B9 showed a binding signal of 1.23 enrichment R.
B10 gave a binding signal of 0.614 enrichment R.
For B11, the binding signal was 0.272 enrichment R.
B12 gave a binding signal of 0.414 enrichment R.
B13 gave a binding signal of 1.03 enrichment R.
For B14, the binding signal was 0.447 enrichment R.
With B15 the binding signal was 0.311 enrichment R.
Work on B16 yielded a binding signal of 0.707 enrichment R.
B17 was tested, and the binding signal was 0.482 enrichment R.
B18 showed a binding signal of 0.768 enrichment R.
Binder B19 has a binding signal of 0.684 enrichment R.
Work on B20 yielded a binding signal of 0.428 enrichment R.
In the case of B21, the binding signal is reported as 0.379 enrichment R.
With B22 the binding signal was 0.235 enrichment R.
